Data: publication PMC4207660, “Identification and Characterization of Hundreds of Potent and Selective Inhibitors of Trypanosoma brucei Growth from a Kinase-Targeted Library Screening Campaign” (PLoS Neglected Tropical Diseases, 2014)
In brackets after ≈: the same amount, converted by molar mass. Like-named read-outs stand apart in the source and are kept apart here.

Columns and labels:
[1] = biological target: T1, Human Serum Albumin (HSA) (Homo sapiens, UniProt P02768); experiment: Protein binding assay (HPLC stationary phase), HSA; assay type: in vitro ADME; settings: Measured
T1 construct: purchased Chiral Technologies, France
Description: Chemically bonded Human Serum Albumin (HSA) and Alpha-1-acidglycoprotein HPLC stationary phases (Chiral Technologies, France) were used for measuring compounds' binding to plasma proteins, applying linear gradient elution up to 30% iso-propanol. The run time was 6 min, including the re-equilibration of the stationary phases with the 50 mM pH7.4 ammonium acetate buffer. The obtained gradient retention times were standardised using a calibration set of mixtures as described in the references. The average standard error of the assay depends on the binding strength and kinetics of the compounds.

[2] = CLND kinetic solubility assay; assay type: physicochemical; settings: phosphate buffered saline, pH 7.4, aqueous buffer, kinetic from dmso stock; Measured; read-out: Aq Sol
Description: 5 µL of 10 mM DMSO stock solution was diluted to 100 µL with pH 7.4 phosphate buffered saline, equilibrated for 1 hour at room temperature, filtered through Millipore MultiscreenHTS-PCF filter plates (MSSL BPC). The filtrate was quantified by suitably calibrated flow injection Chemi-Luminescent Nitrogen Detection.

[3] = tested on: T. brucei brucei parasites (Lister 427 strain); experiment: Dose response growth inhibition assay (resazurin, 72 h); assay type: cell-based; settings: Trypanosoma brucei; T. b. brucei growth inhibition; read-out: Tbb pEC50 (converted)
Description: Greiner sterile black clear bottom 384-well assay plates were pre-dispensing with 200 nL of compound in each well, from master plates at 1 mM (100% DMSO) containing selection from the GSK compound collection. Controls of 0% response (control 1, 200 nL of 100%DMSO) and 100% response (control 2, 200 nL of 1 mM pentamidine) were included in each assay plate in columns 6 and 18, respectively. Plates containing 200 nL of 100% DMSO were included randomly in the assay, to assess quality through all process. […] After this period, 10 µL of 200 µM resazurin solution in prewarmed HMI-9 were added to each well, and plates were allowed to incubate 2 hours more prior fluorescence reading in a Wallac EnVision Multilabel Plate Reader (Perkin-Elmer). Raw fluorescent data from the Envision plate reader were uploaded into GSK HTS database (ActivityBase). Activity of each well was normalized as a percentage of inhibition per-plate basis using the following equation: [drawing 1]
For dose-response experiments, serial compound dilutions of selected hits from the primary campaign were plotted against compound concentration. Dose response master plates were prepared by 3-fold dilutions (starting with 10 mM DMSO stock solutions), providing 11 concentrations. From these master plates, 200 nL per well was stamped in final assay plates, including the same controls describe in the primary single shot assay. […]

ChromlogD assay = experiment: ChromlogD assay
Description: The Chromatographic Hydrophobicity Index (CHI)[22] values were measured using reversed phase HPLC column (Luna C18 (2), Phenomenex, UK) with a fast acetonitrile gradient at starting mobile phase of pH = 7.4. CHI values are derived directly from the gradient retention times by using a calibration line obtained for standard compounds. The CHI value approximates to the volume % organic concentration when the compound elutes. […] The average error of the assay is ±3 CHI unit or ±0.25 ChromlogD.

Cytochrome P450 (CYP450) = Cytochrome P450 (CYP450) (Homo sapiens, UniProt P08684); experiment: Cytochrome P450 inhibition profile; assay type: in vitro ADME; settings: Measured
Description: The P450 inhibition profile of the inhibitors was determined as previously described.

[4] = CYP3A4, VG substrate, read-out: CYP3A4VG pXC50 (converted)
[5] = CYP3A4, VR substrate, read-out: CYP3A4VR pXC50 (converted)

With Cc1[nH]nc(Nc2ccnc3[nH]ccc23)c1C [NEU-0001225] the HSA % binding [1] was 84.7%.
For CC(=O)Nc1nc(C)c(-c2cnc(Cl)c(NS(=O)(=O)c3ccccc3)c2)s1 [NEU-0001233], the solubility kinetic at 1 h [2] was no less than 308 µM, the EC50 [3] was 631 nM and the PFI (ChromlogD assay) was 6.43. For the same compound, the HSA % binding [1] was 96.57%, the IC50 (Cytochrome P450 (CYP450); [4]) was 31.6 µM and the IC50 (Cytochrome P450 (CYP450); [5]) was 25.1 µM.
For Nc1nc(Nc2cccc(S(N)(=O)=O)c2)nc2c1cnn2C1CCC1 [NEU-0001107], the solubility kinetic at 1 h [2] was no less than 460 µM and the PFI (ChromlogD assay) was 4.53.
In the case of FC(F)(F)CNc1nc(Nc2ccsc2)nc2[nH]cnc12 [NEU-0001106], the PFI (ChromlogD assay) is reported as 6.95.
In the case of O=C(Nc1n[nH]c2nnc(-c3cccnc3)cc12)C1CC1 [NEU-0001228], the solubility kinetic at 1 h [2] is reported as 58 µM (≈ 16.3 µg/mL), the EC50 [3] is reported as 1000 nM and the PFI (ChromlogD assay) is reported as 4.64. The HSA % binding [1] was 68.79%, the IC50 (Cytochrome P450 (CYP450); [4]) was 100 µM and the IC50 (Cytochrome P450 (CYP450); [5]) was 25.1 µM.
